Data published in patent US12440573B2, “Antibody-conjugates for targeting of tumours expressing PTK7” (Synaffix B.V., priority 2022, dated 2025).

B1: cofetuzumab-4 (conjugate)
heavy: QVQLVQSGPEVKKPGASVKVSCKASGYTFTDYAVHWVRQAPGKRLEWIGVISTYNDYTYNNQDFKGRVTMTRDTSASTAYMELSRLRSEDTAVYYCARGNSYFYALDYWGQGTSVTVSS[left out - human IgG1 constant region]
light: EIVLTQSPATLSLSPGERATLSCRASESVDSYGKSFMHWYQQKPGQAPRLLIYRASNLESGIPARFSGSGSGTDFTLTISSLEPEDFAVYYCQQSNEDPWTFGGGTKLEIKRTVAAPSVFIFPPSDEQLKSGTASVVCLLNNFYPREAKVQWKVDNALQSGNSQESVTEQDSKDSTYSLSSTLTLSKADYEKHKVYACEVTHQGLSSPVTKSFNRGEC
B2: cofetuzumab-3 (conjugate)
heavy: B1 heavy
light: B1 light

Key:
[1] = Stability of ADCs in human plasma (DAR by RP-UPLC); format: in vitro ADME; details: 0.1 mg/mL, 37° C.; for DAR t = 0: isolated with protA agarose resin
Experimental: (§1) General procedure for analytical RP-UPLC (DTT treated samples): Prior to RP-UPLC analysis, IgG (10 μL, 1 mg/mL in PBS pH 7.4) was added to 12.5 mM DTT, 100 mM TrisHCl pH 8.0 (40 μL) and incubated for 15 minutes at 37° C. The reaction was quenched by adding 49% acetonitrile, 49% water, 2% formic acid (50 μL). RP-UPLC analysis was performed on a Waters Acquity UPLC-SQD. The sample (5 μL) was injected with 0.4 mL/min onto Bioresolve RP mAb 2.1*150 mm 2.7 μm (Waters) with a column temperature of 70° C. A linear gradient was applied in 9 minutes from 30 to 54% acetonitrile in 0.1% TFA and water. Absorbance of eluted peaks was measured at 215 nm followed by automated integration (MassLynx, Waters) to determine reaction conversion.
(§2) Stability of ADCs in mice and human plasma was tested. Prior to the assay, the plasma was depleted from all IgG using CaptivA® Protein A agarose (1 mL agarose/mL serum). ADCs were added to the depleted human/mouse serum to a final concentration of 0.1 mg/mL followed by incubation at 37° C. At each time point, 0.5 mL was snap frozen and stored at −80° C. until further analysis. To isolate the ADCs after incubation, 20 μl CaptivA® Protein A agarose resin was added to the samples and incubated for 1 hour at room temperature. The resin was washed three times with PBS and subsequently 0.1 M Glycine-HCl pH 2.7 (0.4 mL) was added to elute the ADCs. After elution, the samples were immediately neutralized with 1.0 M Tris pH 8.0 (0.1 mL). The samples were spin-filtered against PBS for three times using Amicon Ultra spin-filter 0.5 mL MWCO 10 kDa (Merck Millipore) and the volume was reduced to 40 μL, yielding a final ADC concentration of approximately 1 mg/mL. Samples were analyzed on RP-UPLC (DTT reduced) to determine the DAR, tables below.

[2] = Stability of ADCs in mice plasma (DAR by RP-UPLC); format: in vitro ADME; details: 0.1 mg/mL, 37° C.; for DAR t = 0: isolated with protA agarose resin
Experimental: as §1, §2

[3] = system: A431 (PTK7+, ATCC CRL-1555) cells; assay: In vitro cytotoxicity, resazurin viability; format: cell-based; details: 5 days incubation
Experimental: A431 (PTK7+, ATCC CRL-1555) cells were plated in 96-well plates (10000 cells in 150 μL/well) in DMEM (ATCC) supplemented with 10% fetal bovine serum (FBS) (Invitrogen) and incubated overnight in a humidified atmosphere at 37° C. and 5% CO2. ADCs were added in triplo in a square root of 10 dilution series to obtain a final concentration ranging from 100 nM-0.01 nM. The cells were incubated for 5 days in a humidified atmosphere at 37° C. and 5% CO2. The culture medium was replaced by 0.01 mg/mL resazurin (Sigma Aldrich) in DMEM supplemented with 10% FBS (200 μL/well). After approximately 4 hours in a humidified atmosphere at 37° C. and 5% CO2 the fluorescence was detected with a fluorescence plate reader (Infinite® M1000 Tecan) at 560 nm excitation and 590 nm emission. The relative fluorescent units (RFU) were normalized to cell viability percentage by setting wells without cells at 0% viability and wells with untreated cells at 100% viability (see FIG. 9). IC50 values for ADCs on A431 cells were calculated by non-linear regression using Graphpad prism software and are shown in the table below: […]

[4] = system: PTK7 expressing NCl—H446 tumor model; assay: In vivo efficacy study, NCl—H446 xenograft (Example 30); set-up: species or system BALB/c nude mice; details: single IV dose; cofetuzumab-3 2.59, 5.18, 10.36 mg/kg; cofetuzumab-5b 2.59, 5.18 mg/kg; cofetuzumab-Aur0101 2.33 mg/kg; up to t=44 days
Experimental: (§3) NCl—H446, lung cancer xenograft model cell line was maintained in vitro using RPMI-1640 medium supplemented with 10% FBS in humidified cell culture incubator at 37° C. with standard 5% CO2 specs. The cells in an exponential growth phase were harvested and counted for tumor inoculation.
BALB/c nude mice (female) of 7-9 weeks old received a subcutaneous injection in the right front flank region with 5×10^6 tumor cells in 0.1 ml of PBS mixed with Matrigel (1:1) for tumor development. When tumors reached an average size of 100-200 mm^3, randomization was performed into 10 groups of 8 mice and treatment began. Randomization will be performed based on “Matched distribution” method (Study Director™ Software, version 3.1.399.19). The date of randomization will be denoted as day 0.
(§4) Electronic caliper measurement were performed 2 times a week. Daily observations for clinical signs, food and water consumption, behavioral changes, animals were weighed 2 times per week. […]
(§5) Observation and data collection. […] Tumor volumes are measured every 3-4 days in two dimensions using an caliper, and the volume data are expressed in mm3 using the formula: V=(L×W×W)/2, where V is tumor volume, L is tumor length (the longest tumor dimension) and W is tumor width (the longest tumor dimension perpendicular to L). […]

[5] = system: PTK7 expressing NCl—H446 tumor model; assay: In vivo efficacy study, NCl—H446 xenograft (Example 31); set-up: species or system BALB/c nude mice; details: 5 mg/kg, single IV dose
Experimental: as §3
BALB/c nude mice (female) of 7-9 weeks old received a subcutaneous injection in the right front flank region with 5×10^6 tumor cells in 0.1 ml of PBS mixed with Matrigel (1:1) for tumor development. When tumors reached an average size of 100-200 mm^3, randomization was performed into 6 groups of 8 mice and treatment began. Randomization will be performed based on “Matched distribution” method (Study Director™ Software, version 3.1.399.19). The date of randomization will be denoted as day 0.
as §4
as §5, with “collection: After tumor cells inoculation, the animals are checked daily for morbidity and mortality.” for “collection.”

| Molecule | DAR t = 3 [1] | DAR t = 7 [1] | DAR t = 14 [1] | DAR t = 14, % of t = 0 [1] [%] | DAR t = 0 [1] | DAR t = 1 [2] | DAR t = 3 [2] | DAR t = 7 [2] | DAR t = 7, % of t = 0 [2] [%] | DAR t = 0 [2] | IC50 [3] [nM] | in vivo efficacy (tumor volume over time) [4] | in vivo efficacy (tumor volume over time) [5] |
| --- | --- | --- | --- | --- | --- | --- | --- | --- | --- | --- | --- | --- | --- |
| B1 | 3.91 | 3.90 | 3.88 | 99 | 3.93 | 3.78 | 3.81 | 3.57 | 92 | 3.90 | 3.9 | – | – |
| B2 | 3.88 | 3.80 | 3.80 | 97 | 3.91 | 3.89 | 3.88 | 3.86 | 99 | 3.90 | – | tumor regression with a clear dose-response | tumor growth inhibition, but also early regrowth of the tumor |
